Patent publication US12221481B2, “CD19 binding molecules and uses thereof” (Novartis AG, priority 2019, dated 2025)

Experiments:
[1] = system: OCI-LY-19 DLBCL subcutaneous tumor
Karpas422 target cells [2] = test: RTCC against Karpas422, E:T 1:1, 96 hour (Examples 17, 21); type: cell-based, human; settings: two T cell donors
Description: (§1) The purified TBMs were compared across multiple donor effector cells. Briefly, huCD19-expressing Nalm6 and Karpas422 target cells were engineered to overexpress firefly luciferase. Cells were harvested and resuspendend in RPMI medium (Invitrogen #11875-093) with 10% FBS. 5,000 target cells per well were plated in a flat-bottom 384-well plate. Human pan T effector cells were isolated via negative selection (Stemcell Technologies #17951) from two donors from cryopreserved PBMCs that were separated from a leukopak (Hemacare #PB001F-1) by Ficoll density gradient centrifugation. Purified T cells were then added to the plate to obtain a final E:T ratio of 3:1, 1:1, 1:3 or 1:5. Co-cultured cells were incubated with serial dilutions of all constructs and controls. For normalization, average maximum luminescence refers to target cells co-incubated with effector cells, but without any test construct. After an incubation of 48, 72 or 96 hr at 37° C., 5% CO2, OneGlo luciferase substrate (Promega #E6120) was added to the plate. Luminescence was measured on an Envision plate reader after a 10 minute incubation. Percent specific lysis was calculated using the following equation: Specific lysis (%)=(1−(sample luminescence/average maximum luminescence))*100
An RTCC assay with huCD19-expressing Karpas422 target cells was performed according to the Materials and Methods described in Example 9, but with a final E:T ratio of 1:1 and a 96 hour incubation.

OCI-LY-19 target cells = test: Re-challenge RTCC assay, OCI-LY-19; type: cell-based, human; settings: E:T 1:1, repeated target cell challenges
Description: (§2) OCI-LY-19 and Karpas422 target cells stably expressing firefly luciferase were plated in a Costar 6 well plate in T Cell Media (TCM). PBMCs previously isolated and cryopreserved from 2 Leukopak donors were thawed and Pan T cells were isolated (as described earlier). […] The plates were incubated for 4 days for OCI-LY-19 and 5 days for Karpas 422 cells. At the end of incubation, the killing of target cells was determined using the luminescence signal. The absolute T cell counts from each antibody treated condition was also determined. For the next round of rechallenge, it was ensured that the killing of target cells was equivalent across various antibody conditions. […] Additionally, a dose titration RTCC at a E:T of 1:1 and a concentration range of 2 nM-0.000001 nM was set-up using T cells from the different antibody treated conditions with a 4 day incubation used for each cell line. The killing of target cells was determined using the luminescence signal to generate dose response curves. At the end of the challenge, the above process was repeated once more for Karpas 422 and twice more for OCI-LY-19 cells.

[3] = system: Daudi-Luc Burkitt's lymphoma subcutaneous tumor; test: Daudi-Luc Burkitt's lymphoma subcutaneous tumor model, human PBMC adoptive transfer, NSG mice (Example 31); type: in vivo; settings: for tumor regression: single IV administration; for Δ Body weight from initial (Mean ± SEM) Day 36 / Δ Tumor burden from initial (Mean) Day 36 / Regression: single dose IV; for Regression: Day 36
Description: On Day 0, Daudi-Luc cells were harvested and suspended in a 1:1 mixture of Hanks Balanced Salt Solution (HBSS) and Matrigel at a concentration of 50×10^6 cells/mL.
Tumor volume and body weights were recorded twice weekly. Tumor volume was measured by caliper.
On day 36 following Daudi-Luc implantation, 25% of animals from the Tumor+AdT control group were euthanized due to tumor volume.

Karpas422 target cells [4] = test: Re-challenge RTCC assay, Karpas 422; type: cell-based, human; settings: E:T 1:1, repeated target cell challenges
Description: as §2

T cells [5] = test: Cytokine release assay with Karpas422 cells (Example 18); type: cell-based, human; settings: E:T 1:1, 48 hours
Description: Briefly, huCD19-expressing Nalm6 target cells were harvested and resuspended in RPMI medium with 10% FBS. 20,000 target cells per well were plated in a flat-bottom 96-well plate. Human pan T effector cells were isolated via MACS negative selection from cryopreserved PBMC then added to the plate to obtain a final E:T ratio of 5:1. Co-cultured cells were incubated with serial dilutions of all constructs and controls. After an incubation of 24 hr at 37° C., 5% CO2, the supernatants were harvested by centrifugation at 300×g for 5 min for subsequent analysis.
A multiplexed ELISA was performed according to the manufacturer's instructions using a V-PLEX Proinflammatory Panel 1 Kit (MesoScale Discovery #K15049D).
A cytokine release assay was performed as in Example 10, but with Karpas422 cells at a final E:T ratio of 1:1 and an incubation of 48 hours.

K562 target cells = test: RTCC against K562 lacking hCD19 (Example 22); type: cell-based; settings: antigen-negative, E:T 1:1, 48 hour
Description: as §1
(§3) Nalm6 KO was generated from Nalm6 parental cell line by using CRISPR-CAS9 technology and was confirmed to lack hCD19 expression. […]

Nalm6 KO target cells = test: RTCC against Nalm6 KO lacking hCD19 (Example 22); type: cell-based, human; settings: antigen-negative, E:T 1:1, 48 hour
Description: as §1, §3

T cells [6] = test: TBM and BBM binding to T cells (flow cytometry); parameters: species or system human; settings: 33 μg/ml-0.005 μg/ml, on ice 1 hour
Description: Peripheral blood mononuclear cells (PBMCs) previously isolated and cryopreserved from 2 Leukopak donors (Hemacare) were thawed and Pan T cells were isolated by negative selection using the Pan T cell Isolation Kit, human (Miltenyi Biotec, Cat #130-096-535) following the manufacturer's protocol. T cells were resuspended in FACS Buffer and 100,000 cells were added to each well of a 96 well round bottom plate. A dilution series of CD3med TSP1, CD3hi TSP1, CD3hi BSP1, and CD3hi TSP1C ranging from 33 μg/ml-0.005 μg/ml was added to cells and incubated on ice for 1 hour. Cells were washed twice, resuspended in 100 μl of anti-human IgG secondary antibody and incubated on ice for another hour. After the incubation, cells were washed twice, resuspended in 100 pI of fixable viability dye and incubated on ice for 30 min. After washing twice again, cells were resuspended in 120 μl of FACS buffer. The cells were then run on BD LSR Fortessa and data was analyzed using FlowJo to determine the MFI of anti-human IgG secondary antibody, which was plotted against antibody concentration.

Nalm6 target cells = test: RTCC against Nalm6 (Example 22); type: cell-based, human; settings: E:T 1:1, 48 hour
Description: as §1
Nalm6 KO was generated from Nalm6 parental cell line by using CRISPR-CAS9 technology and was confirmed to lack hCD19 expression. Oci-Ly19, Toledo, Nalm6, Nalm6 KO and K562 target cells were engineered to overexpress firefly luciferase. RTCC assays were performed with the different cells lines according to the Materials and Methods described in Example 9, but with a final E:T ratio of 1:1 and a 48 hour incubation.

B1: CD3med TSP1: NEG258-based TBM with CD3med anti-CD3 scFv and CD58 IgV CD2-binding arm (antibody)
heavy: QVQLVQSGAEVKKPGASVKVSCKASGYTFTTYWIQWVRQAPGQRLEWMGAVYPGDADTRYTQKFQGRVTLTADRSASTAYMELSSLRSEDTAVYYCGRDAGLEYYALDYWGQGTLVTVSSASTKGPSVFPLAPSSKSTSGGTAALGCLVKDYFPEPVTVSWNSGALTSGVHTFPAVLQSSGLYSLSSVVTVPSSSLGTQTYICNVNHKPSNTKVDKRVEPKSCGGGGSGGGGSEVQLVESGGGLVQPGGSLKLSCAASGFTFNTYAMNWVRQASGKGLEWVGRIRSKYNNYATYYADSVKDRFTISRDDSKNTAYLQMNSLKTEDTAVYYCVRHGNFGNSYVSWFAHWGQGTLVTVSSGGGGSGGGGSGGGGSGGGGSQAVVTQEPSLTVSPGGTVTLTCGSSTGAVTSSNYANWVQQKPGQAPRGLIGGTNKRAPWTPARFSGSLLGGKAALTLSGAQPEDEAEYYCALWYSNLWVFGGGTKLTVLGGGGSDKTHTCPPCPAPELLGGPSVFLFPPKPKDTLMISRTPEVTCVVVAVSHEDPEVKFNWYVDGVEVHNAKTKPREEQYASTYRVVSVLTVLHQDWLNGKEYKCKVSNKALAAPIEKTISKAKGQPREPQVCTLPPSREEMTKNQVSLSCAVKGFYPSDIAVEWESNGQPENNYKTTPPVLDSDGSFFLVSKLTVDKSRWQQGNVFSCSVMHEALHNHYTQKSLSLSPGK
light: EIVMTQSPATLSVSPGERATLSCRASQDVGTAVAWYQQKPGQAPRLLIYWASTRHTGIPARFSGSGSGTEFTLTISSLQSEDFAVYFCQQYANFPLYTFGQGTKLEIKRTVAAPSVFIFPPSDEQLKSGTASVVCLLNNFYPREAKVQWKVDNALQSGNSQESVTEQDSKDSTYSLSSTLTLSKADYEKHKVYACEVTHQGLSSPVTKSFNRGEC
chain: SQQIYGVVYGNVTFHVPSNVPLKEVLWKKQKDKVAELENSEFRAFSSFKNRVYLDTVSGSLTIYNLTSSDEDEYEMESPNITDTMKFFLYVLESGGGGSDKTHTCPPCPAPELLGGPSVFLFPPKPKDTLMISRTPEVTCVVVAVSHEDPEVKFNWYVDGVEVHNAKTKPREEQYASTYRVVSVLTVLHQDWLNGKEYKCKVSNKALAAPIEKTISKAKGQPREPQVYTLPPCREEMTKNQVSLWCLVKGFYPSDIAVEWESNGQPENNYKTTPPVLDSDGSFFLYSKLTVDKSRWQQGNVFSCSVMHEALHNHYTQKSLSLSPGK
tumor regression ([1]; 1.0 mg/kg IV weekly, Day 24): 64.5%
Δ Body weight from initial (Mean ± SEM) Day 24 ([1]; 1.0 mg/kg, QWx3): −11.30 ± 1.93%
Δ Tumor burden from initial (Mean ± SEM) Day 24 ([1]; 1.0 mg/kg, QWx3): −215.32 ± 38.48 mm^3
Regression ([1]; 1.0 mg/kg, QWx3, Day 24): 64.3* %
treatment associated body weight loss ([1]; observed following the first dose only): treatment associated body weight loss
cytotoxic activity (specific lysis) (Karpas422 target cells [2]): show cytotoxic activity
retention of killing ability upon repeated challenges (OCI-LY-19 target cells): next best
tumor regression ([3]; 0.1 mg/kg): 13.51%
Δ Body weight from initial (Mean ± SEM) Day 36 ([3]; 0.1 mg/kg): 0.165 ± 2.561%
Δ Tumor burden from initial (Mean) Day 36 ([3]; 0.1 mg/kg): −19.77 mm^3
Regression ([3]; 0.1 mg/kg): 13.51%
tumor regression ([3]; 0.3 mg/kg): 85.13%
Δ Body weight from initial (Mean ± SEM) Day 36 ([3]; 0.3 mg/kg): 3.214 ± 1.737%
Δ Tumor burden from initial (Mean) Day 36 ([3]; 0.3 mg/kg): −124.57 mm^3
Regression ([3]; 0.3 mg/kg): 85.13%
tumor regression ([3]; 1.0 mg/kg): 90.86%
Δ Body weight from initial (Mean ± SEM) Day 36 ([3]; 1.0 mg/kg): 3.839 ± 1.597%
Δ Tumor burden from initial (Mean) Day 36 ([3]; 1.0 mg/kg): −132.92 mm^3
Regression ([3]; 1.0 mg/kg): 90.86%
retention of killing ability upon repeated challenges (Karpas422 target cells [4]): next best
cytokine secretion by T cells (IFN-γ, IL-2, TNF-α) (T cells [5]): induced cytokine secretion by T cells
cytotoxic activity (target-independent killing) (K562 target cells): minimal activity
cytotoxic activity (target-independent killing) (Nalm6 KO target cells): minimal activity
binding to T cells (MFI of anti-human IgG secondary antibody) (T cells [6]): followed by CD3med TSP1
cytotoxic activity (specific lysis) (Nalm6 target cells): showed cytotoxic activity

Marks after values point to notes of the source that are not given here.
